We go through 55 molecules from paper PMC4336329 (PLoS ONE, 2015).

Among all 310,000 compounds or so, about 14,000 (4.5%) showed an effect of 50% or more. The effect is printed as a negative number. This is one part of the list.
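Also: peak tail current of the secondary pulse compared with the same well before compound.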

For the test, the target named is human ether-à-go-go-related gene (hERG) potassium channel (human, UniProt Q12809). Description: primary screen, population patch clamp on CHO cells stably expressing hERG.
Sequence of human ether-à-go-go-related gene (hERG) potassium channel (Q12809 whole entry, looked up): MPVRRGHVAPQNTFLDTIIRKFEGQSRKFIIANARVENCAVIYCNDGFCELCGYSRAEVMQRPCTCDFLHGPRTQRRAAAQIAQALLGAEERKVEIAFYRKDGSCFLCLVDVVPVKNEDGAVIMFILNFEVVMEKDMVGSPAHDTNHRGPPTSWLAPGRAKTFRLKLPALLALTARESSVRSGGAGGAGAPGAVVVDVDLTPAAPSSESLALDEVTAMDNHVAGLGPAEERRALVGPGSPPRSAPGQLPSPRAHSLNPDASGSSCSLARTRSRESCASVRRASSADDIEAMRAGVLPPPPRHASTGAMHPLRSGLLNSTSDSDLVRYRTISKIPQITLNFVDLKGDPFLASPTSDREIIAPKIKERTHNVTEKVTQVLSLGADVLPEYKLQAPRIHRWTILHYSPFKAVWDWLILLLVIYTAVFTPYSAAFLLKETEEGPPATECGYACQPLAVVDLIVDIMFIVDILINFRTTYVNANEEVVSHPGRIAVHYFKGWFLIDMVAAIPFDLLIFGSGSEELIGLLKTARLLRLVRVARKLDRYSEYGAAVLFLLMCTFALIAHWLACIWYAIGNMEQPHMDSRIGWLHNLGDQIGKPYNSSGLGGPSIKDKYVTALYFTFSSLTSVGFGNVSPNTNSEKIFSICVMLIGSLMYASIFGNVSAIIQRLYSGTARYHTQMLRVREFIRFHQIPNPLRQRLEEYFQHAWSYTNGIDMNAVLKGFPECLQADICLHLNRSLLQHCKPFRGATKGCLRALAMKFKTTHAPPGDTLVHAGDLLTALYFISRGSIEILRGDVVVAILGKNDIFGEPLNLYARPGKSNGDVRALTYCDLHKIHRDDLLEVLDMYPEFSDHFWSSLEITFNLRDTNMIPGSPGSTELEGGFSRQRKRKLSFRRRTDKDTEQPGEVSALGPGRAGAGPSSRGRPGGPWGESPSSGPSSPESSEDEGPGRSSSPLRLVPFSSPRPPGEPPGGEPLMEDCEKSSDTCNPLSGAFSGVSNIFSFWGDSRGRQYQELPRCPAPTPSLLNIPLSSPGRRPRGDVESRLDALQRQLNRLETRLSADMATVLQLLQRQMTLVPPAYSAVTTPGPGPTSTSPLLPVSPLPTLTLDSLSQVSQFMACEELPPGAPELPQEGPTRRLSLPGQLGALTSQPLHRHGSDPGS
Take `COc1ccc(-c2ccnc3[nH]n(-c4ccccc4)c(=O)c23)cc1`: the “hERG current change (%, negative = inhibition) at 10uM” value turned out to be 10.5%.
Then `N#CCCN1CCN(C(=S)c2ccc(-c3ccc(Cl)cc3)o2)CC1`, with -55.8%.
To `C=CCNc1nc2c(c(=O)[nH]c(=O)n2C)n1CCCCC` belongs -12.1%; to `S=C1NC2=C(CCCC2=C2SCCS2)C(c2ccccc2)N1` (stereo not shown), 11.7%; to `CCCCNc1ccc(C(=O)OCCOCCOCCOCCOCCOCCOCCOCCOCCOC)cc1`, -9.24%.
To `O=C(COC(=O)c1cccs1)Nc1ccc(F)c(F)c1` belongs 12.2%; to `C=CCNC(=O)C(=O)N/N=C/c1ccco1`, -8.46%; to `Cc1cccc(C)c1OCCOCCN1CCN(C)CC1`, -11.4%.
Turning to `Cc1oc(-c2ccccc2F)nc1CN1CCC(C(=O)NC2CCCc3ccccc32)CC1` (stereo not shown), the “hERG current change (%, negative = inhibition) at 10uM” value is on record as -63.9%.
In the case of `COc1ccc(CN2CCN(CCCCOc3ccc(Cl)cc3)CC2)c(OC)c1OC.O=C(O)C(=O)O`, the “hERG current change (%, negative = inhibition) at 10uM” value is -74.4%.
For `COc1ccc(OCC(=O)N2CCCC(N3CCN(c4ccccc4C)CC3)C2)cc1` (stereo not shown), the “hERG current change (%, negative = inhibition) at 10uM” value is -85.9%.
Then `COc1nc2ccccc2c(=O)n1OCC(C)C`, with -9.23%.
For `Clc1ccc(/C=C/c2ncc[nH]2)c(Cl)c1`, the “hERG current change (%, negative = inhibition) at 10uM” value is listed as -2.62%.
Regarding `Nn1c(SCC(=O)Nc2ccc(S(N)(=O)=O)cc2)nnc1-c1ccco1`, the “hERG current change (%, negative = inhibition) at 10uM” value is -2.12%.
Turning to `Cc1cc(=O)oc2cc(OCC(=O)OCC(=O)NC(=O)NC(C)C)ccc12`, the “hERG current change (%, negative = inhibition) at 10uM” value is reported as 13.2%.
To `CCCCN1C(=O)NC(=O)C2(Cc3c(nc4c(C)cccn4c3=O)N3CCc4ccccc4C32)C1=O` (stereo not shown) belongs -8.41%; to `Fc1ccccc1N1CCN(Cc2cnc(Cl)s2)CC1`, 20.7%.
As to `CC(=O)c1sc(NC(=O)c2ccc(C)c(C)c2)nc1C`, the “hERG current change (%, negative = inhibition) at 10uM” value is -2.61%.
To `O=[N+]([O-])c1ccccc1CS(=O)(=O)c1ccccc1` belongs 0.0419%; to `Cc1ccc2c3c([nH]c2c1C)-c1nonc1CC3`, 20.2%; to `Cn1c(O)c(C(=O)c2ccccc2F)c(=O)n(C)c1=O`, 8.56%.
For the molecule `CCN(CCCNc1ncnc2nc[nH]c12)c1cccc(C)c1`, the “hERG current change (%, negative = inhibition) at 10uM” value is -22.7%.
To `CCOc1cccc2sc(N(CCCN(C)C)C(=O)c3ccc(S(=O)(=O)N(C)Cc4ccccc4)cc3)nc12.Cl` belongs -40.4%; to `CC(C)(C)OC(=O)N[C@@H](CCCCNC(=O)OCc1ccccc1)c1nnc([C@H](CCCCNC(=O)OCc2ccccc2)NC(=O)OC(C)(C)C)o1`, -22.6%; to `COc1cccc(CNC(=O)C2CCN(S(=O)(=O)c3ccc4c(c3)CC(C)N4C(=O)C3CC3)CC2)c1` (stereo not shown), 6.62%.
Then `CCN(CC)CCN1C(=O)Cn2c(C)c(C)c3cccc1c32.O=C(O)C(O)C(O)C(=O)O`, with -65.1%; and `Cc1cc(C)c(C#N)c(Nc2ccc3c(c2)OCCO3)n1`, with 5.17%.
On to `COc1ccc([C@H]2CC(=O)C=C(c3cc(OC)ccc3OC)C2)cc1`, for which the “hERG current change (%, negative = inhibition) at 10uM” value was -15.6%.
To `CCCCNC(=O)N1CCC(CCC(=O)N(C)Cc2ccccc2)CC1` belongs -3.81%; to `COc1cc(Cl)ccc1OCc1cc(C(=O)N(C)CCc2c(C)n[nH]c2C)no1`, -19.5%; to `Cc1ccc(-c2nc(C=Nc3ccccc3)c(O)o2)cc1`, 12.6%.
Then `FC(F)Oc1cccc(NC(=S)N2CCN(c3ccccn3)CC2)c1`, with 8.99%.
As to `COc1ccc(/C=C/c2noc(-c3ccccc3OC(C)=O)n2)cc1`, the “hERG current change (%, negative = inhibition) at 10uM” value is 13.2%.
Then `O=C1NC(CCc2ccccc2)C(=O)N1CCOc1cccc(Br)c1` (stereo not shown), with 7.05%; and `Cc1cc(S(=O)(=O)N2CCc3ccccc3C2)ccc1F`, with 7.2%.
Then `CCN(CC(=O)Nc1cc(Cl)ccc1C)C(=O)CN1C(=O)NC(CC)(c2ccccc2)C1=O` (stereo not shown), with -9.36%.
Then `COc1ccc(CCNCc2ccc(C)s2)cc1OC.Cl`, with -31.8%; and `Cc1ccc(N(CC(=O)Nc2ccccc2C(=O)NCc2ccco2)S(=O)(=O)c2ccccc2)cc1C`, with 10.3%; and `Cn1c2ccccc2c2cc(/C=N/NC(=O)c3ccc(N)cc3)ccc21`, with -5.69%.
As for `O=C(O)CNS(=O)(=O)c1ccc(F)cc1`, the “hERG current change (%, negative = inhibition) at 10uM” value is 23.7%.
To `CCOC(=O)c1ccc(NC(=O)N2CCN(C(=O)c3ccco3)CC2)cc1` belongs -4.3%.
Then `COCC(=O)Nc1c(C(=O)Nc2ccc3c(c2)OCO3)oc2ccccc12`, with 17.9%.
`Cc1[nH]c2nc3ccccc3n2c(=O)c1CCC(C)C`: the “hERG current change (%, negative = inhibition) at 10uM” value amounted to 18%.
To `CC(C)CNC(=O)CN1c2cccc3cccc(c23)S1(=O)=O` belongs 17.2%; to `Cc1ccc(N(C(=O)CNC(=O)c2ccco2)C(C(=O)NCC2CCCO2)c2ccccc2)cc1` (stereo not shown), 5.83%.
To `O=C1/C(=C/c2cccnc2)Oc2cc(OS(=O)(=O)c3ccc(F)cc3)ccc21` belongs -3.08%; to `Cc1onc(-c2ccccc2)c1C(=O)NC(C)CCc1ccccc1` (stereo not shown), 15.2%.
Then `COc1ccc(-c2ccc3oc(-c4ccsc4)c(-c4ccc(OC)cc4)c3c2)cc1`, with 7.39%; and `COC(=O)c1[nH]c2ccc(F)cc2c1NC(=O)Nc1ccc(OC)cc1`, with 9.32%.
`Cc1ccc(-c2nn(CC(=O)NCc3ccco3)c(=O)c3ccccc23)cc1`: the “hERG current change (%, negative = inhibition) at 10uM” value is listed as 18.4%.
On to `CCOC(=O)c1cc2c(C)n(-c3ccc(C)cc3)c(C)c2ccc1=O`, for which the “hERG current change (%, negative = inhibition) at 10uM” value is -42.4%.
Then `Cc1noc(C)c1CN1C(=O)c2cccc([N+](=O)[O-])c2C1=O`, with 23.2%; and `Cc1ccc(C)c(S(=O)(=O)N2CCN(C(=O)/C=C/c3ccco3)CC2)c1`, with -35.7%; and `CNc1c([N+](=O)[O-])cnn1-c1ccc(Cl)cc1Cl`, with -12.9%.
Take `CNC(=O)c1ccsc1NC(=O)CS(=O)(=O)c1ccc(Cl)cc1`: the “hERG current change (%, negative = inhibition) at 10uM” value was -38.6%.
